{
  "source": "patent US4952607A",
  "about": "“Copper complex for treating cancer” (priority 1986, dated 1990)",
  "key": {"Ehrlich carcinoma cells [1]": {"tested_on": "Ehrlich carcinoma cells", "conditions": "for effective dose: intramuscular; for mice surviving beyond the time at which all control mice died: 58th day after implantation; for Mean Survival Time: ± standard error, p less than 0.0001"}, "Ehrlich carcinoma cells [2]": {"tested_on": "Ehrlich carcinoma cells", "conditions": "cited from earlier work"}, "Ehrlich carcinoma cells [3]": {"tested_on": "Ehrlich carcinoma cells", "assay": "Preliminary experiments in Swiss mice implanted with Ehrlich carcinoma cells", "type": "in vivo"}, "[4]": {"conditions": "CuDIPS × 10 (Daily, days 0-4 and 35-39)"}},
  "note": "Read-outs that look alike come from different tables or passages of the source.",
  "data": [
    {"compound": "CC(=O)Oc1ccccc1C(=O)[O-].CC(=O)Oc1ccccc1C(=O)[O-].CC(=O)Oc1ccccc1C(=O)[O-].CC(=O)Oc1ccccc1C(=O)[O-].[Cu+2].[Cu+2]", "note": "[Cu(II)2 (aspirinate)4]", "values": [
      {"measurement": "tumor growth", "setting": "Ehrlich carcinoma cells [1]; Charts VII and VIII", "value": "reduces tumor growth"},
      {"measurement": "effective dose", "setting": "Ehrlich carcinoma cells [1]", "value": 50, "unit": "mg/kg"},
      {"measurement": "activity compared with SOD", "setting": "Ehrlich carcinoma cells [1]; solid Ehrlich tumor", "value": "more active than SOD"}
    ]},
    {"compound": "CC(C)c1cc(C(=O)[O-])c(O)c(C(C)C)c1.CC(C)c1cc(C(=O)[O-])c(O)c(C(C)C)c1.[Cu+2]", "note": "[CuDIPS, Cu(II) (3,5-diisopropylsalicylate)2]", "values": [
      {"measurement": "mean survival vs other CuDIPS groups", "setting": "Ehrlich carcinoma cells [1]; 0.5 mg MWF, 10 doses", "value": "showed a greater increase in mean survival"},
      {"measurement": "mice with regressed tumors", "setting": "Ehrlich carcinoma cells [1]; 0.5 mg MWF, 10 doses, out of 24 mice, tumors recurred by 90 days", "value": "two of them had regressed tumors"},
      {"measurement": "lung nodules on 45th day", "setting": "Ehrlich carcinoma cells [1]; 5 daily doses of CuDIPS, killed on 45th day after transplantation", "value": "only microscopic nodules were observed in the lungs"},
      {"measurement": "mice surviving beyond the time at which all control mice died", "setting": "Ehrlich carcinoma cells [1]", "value": 45, "unit": "%"},
      {"measurement": "tumor growth", "setting": "Ehrlich carcinoma cells [1]; 5 days, p less than 0.001", "value": "difference in tumor growth"},
      {"measurement": "animals surviving for 48 days", "setting": "Ehrlich carcinoma cells [1]; 48 days", "value": "More than 90%"},
      {"measurement": "efficacy in reducing tumor growth among complexes of Chart IX", "setting": "Ehrlich carcinoma cells [1]; Chart IX", "value": "most effective in reducing tumor growth"},
      {"measurement": "survival of the host organisms", "setting": "Ehrlich carcinoma cells [1]; Charts V and VI", "value": "prolonged survival of the host organisms"},
      {"measurement": "tumor growth", "setting": "Ehrlich carcinoma cells [1]; Charts V and VI", "value": "dramatically reduced tumor growth"},
      {"measurement": "time until microscopic lung metastasis observed", "setting": "Ehrlich carcinoma cells [1]; CuDIPS treated mice, control as early as 10 days", "value": "≥ 45", "unit": "days"},
      {"measurement": "Maximum Survival Time", "setting": "Ehrlich carcinoma cells [1]; CuDIPS × 5 (Daily)", "value": 68, "unit": "days"},
      {"measurement": "Median Survival Time", "setting": "Ehrlich carcinoma cells [1]; CuDIPS × 5 (Daily)", "value": 52, "unit": "days"},
      {"measurement": "Mean Survival Time", "setting": "Ehrlich carcinoma cells [1]; CuDIPS × 5 (Daily)", "value": "54 ± 3", "unit": "days"},
      {"measurement": "Maximum Survival Time", "setting": "Ehrlich carcinoma cells [1]; CuDIPS × 10 (Daily)", "value": 87, "unit": "days"},
      {"measurement": "Median Survival Time", "setting": "Ehrlich carcinoma cells [1]; CuDIPS × 10 (Daily)", "value": 55, "unit": "days"},
      {"measurement": "Mean Survival Time", "setting": "Ehrlich carcinoma cells [1]; CuDIPS × 10 (Daily)", "value": "58 ± 5", "unit": "days"},
      {"measurement": "Maximum Survival Time", "setting": "Ehrlich carcinoma cells [1]; [4]", "value": "> 124", "unit": "days"},
      {"measurement": "Median Survival Time", "setting": "Ehrlich carcinoma cells [1]; [4]", "value": 59, "unit": "days"},
      {"measurement": "Mean Survival Time", "setting": "Ehrlich carcinoma cells [1]; [4]", "value": "58 ± 4", "unit": "days"},
      {"measurement": "Maximum Survival Time", "setting": "Ehrlich carcinoma cells [1]; CuDIPS × 10 (MWF)", "value": 124, "unit": "days"},
      {"measurement": "Median Survival Time", "setting": "Ehrlich carcinoma cells [1]; CuDIPS × 10 (MWF)", "value": 62, "unit": "days"},
      {"measurement": "Mean Survival Time", "setting": "Ehrlich carcinoma cells [1]; CuDIPS × 10 (MWF)", "value": "61 ± 6", "unit": "days"},
      {"measurement": "Maximum Survival Time", "setting": "Ehrlich carcinoma cells [1]; CuDIPS × 18 (MWF × 6)", "value": 79, "unit": "days"},
      {"measurement": "Median Survival Time", "setting": "Ehrlich carcinoma cells [1]; CuDIPS × 18 (MWF × 6)", "value": 49, "unit": "days"},
      {"measurement": "Mean Survival Time", "setting": "Ehrlich carcinoma cells [1]; CuDIPS × 18 (MWF × 6)", "value": "50 ± 4", "unit": "days"},
      {"measurement": "effect on metastasis", "setting": "Ehrlich carcinoma cells [1]; CuDIPS, 5 daily doses", "value": "delayed the process of metastasis"},
      {"measurement": "effective dose", "setting": "Ehrlich carcinoma cells [1]", "value": 25, "unit": "mg/kg"},
      {"measurement": "animals surviving for over 98 days", "setting": "Ehrlich carcinoma cells [2]; CuDIPS every day for 10 days, over 98 days", "value": 10, "unit": "%"}
    ]},
    {"compound": "CC(C)(C)c1cc(C(=O)[O-])c(O)c(C(C)(C)C)c1.CC(C)(C)c1cc(C(=O)[O-])c(O)c(C(C)(C)C)c1.[Cu+2]", "note": "[CuDTBS, Cu(II)(3,5-ditertiarybutylsalicylate)2]", "values": [
      {"measurement": "mice surviving beyond the time at which all control mice died", "setting": "Ehrlich carcinoma cells [1]", "value": 25, "unit": "%"},
      {"measurement": "survival of the host organisms", "setting": "Ehrlich carcinoma cells [1]; Charts V and VI", "value": "prolonged survival of the host organisms"},
      {"measurement": "tumor growth", "setting": "Ehrlich carcinoma cells [1]; Charts V and VI", "value": "dramatically reduced tumor growth"},
      {"measurement": "period for 100% survival", "setting": "Ehrlich carcinoma cells [1]; CuDTBS-treated group", "value": 44, "unit": "days"},
      {"measurement": "period for 100% survival vs controls", "setting": "Ehrlich carcinoma cells [1]; CuDTBS-treated group", "value": "ten times longer"}
    ]},
    {"compound": "O=C(O)c1ccccc1[O-].O=C(O)c1ccccc1[O-].[Cu+2]", "note": "[CuS, Cu(II)(salicylate)2]", "values": [
      {"measurement": "tumor growth", "setting": "Ehrlich carcinoma cells [1]; Charts V and VI", "value": "dramatically reduced tumor growth"},
      {"measurement": "effective dose", "setting": "Ehrlich carcinoma cells [1]", "value": 25, "unit": "mg/kg"}
    ]},
    {"compound": "O=S(=O)([O-])[O-].[Cu+2]", "note": "[CuSO4, copper sulfate, reference compound]", "values": [
      {"measurement": "cause of death", "setting": "Ehrlich carcinoma cells [1]; CuSO4 0.5 mg, 5 days", "value": "death is caused by massive lung metastasis"},
      {"measurement": "antitumor activity", "setting": "Ehrlich carcinoma cells [1]; CuSO4 or DIPS alone", "value": "no antitumor activity"},
      {"measurement": "antitumor effect", "setting": "Ehrlich carcinoma cells [2]; Ehrlich tumor model", "value": "no antitumor effect"}
    ]},
    {"compound": "Orgotein: generic name for CuZnSOD derived from bovine liver", "values": [
      {"measurement": "response of Ehrlich carcinoma to treatment", "setting": "Ehrlich carcinoma cells [1]; CBA mice, day of implantation or 5 or 10 consecutive days, listed as SOD", "value": "no effect against this solid Ehrlich tumor"},
      {"measurement": "effect on growth of tumor cells", "setting": "Ehrlich carcinoma cells [1]; any of the models studied", "value": "does not have a large effect on the growth of tumor cells"},
      {"measurement": "reduction in tumor size", "setting": "Ehrlich carcinoma cells [3]", "value": "a reduction in tumor size occurs"}
    ]}
  ]
}
